According to the supplement of paper PMC11876631:
± gives the standard deviation of the averaged measurements. Laboratory Escherichia coli strains with one amino-acid change in an essential protein, pooled on minimal glucose agar with carbenicillin or gentamicin at twice the control MIC (plus kanamycin and chloramphenicol for the plasmids), 48 h. Fold change of barcode share against drug-free plates; higher = less susceptible. Active = above 20 in both replicates (the paper's putatively resistant). '<' = one read or none on drug, '>' = one read or none on a drug-free plate. Shares are relative, so most strains fall below 1 when a few take over. Listed are strains with at least 15 reads on both drug-free plates, and hits; most hits rest on fewer reference reads. Replicate rank correlation about 0.5. Edits are read from barcodes.

Biological target: Escherichia coli (laboratory strain)
Test: barcode share on antibiotic plates over drug-free plates; higher = less susceptible
Experimental: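 A pool of E. coli strains, each edited to carry one amino-acid change in an essential protein, was grown for 48 h on minimal glucose agar with or without antibiotic; strain barcodes were sequenced; mean of two replicates.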

[1] = antibiotic: carbenicillin, 2× MIC (3.1 µg/mL)
[2] = antibiotic: gentamicin, 2× MIC (MIC 0.45 µg/mL)

B1: ftsA V24A (protein)
chain: MIKATDRKLVVGLEIGTAKVAALAGEVLPDGMVNIIGVGSCPSRGMDKGGVNDLESVVKCVQRAIDQAELMADCQISSVYLALSGKHISCQNEIGMVPISEEEVTQEDVENVVHTAKSVRVRDEHRVLHVIPQEYAIDYQEGIKNPVGLSGVRMQAKVHLITCHNDMAKNIVKAVERCGLKVDQLIFAGLASSYSVLTEDERELGVCVVDIGGGTMDIAVYTGGALRHTKVIPYAGNVVTSDIAYAFGTPPSDAEAIKVRHGCALGSIVGKDESVEVPSVGGRPPRSLQRQTLAEVIEPRYTELLNLVNEEILQLQEKLRQQGVKHHLAAGIVLTGGAAQIEGLAACAQRVFHTQVRIGAPLNITGLTDYAQEPYYSTAVGLLHYGKESHLNGEAEVEKRVTASVGSWIKRLNSWLRKEF
Question: What does the source list for B1?
Answer: fold change of barcode share [1]: 0.698 ± 0.65; fold change of barcode share [2]: < 0.00648

B2: ftsA L54W (protein)
chain: MIKATDRKLVVGLEIGTAKVAALVGEVLPDGMVNIIGVGSCPSRGMDKGGVNDWESVVKCVQRAIDQAELMADCQISSVYLALSGKHISCQNEIGMVPISEEEVTQEDVENVVHTAKSVRVRDEHRVLHVIPQEYAIDYQEGIKNPVGLSGVRMQAKVHLITCHNDMAKNIVKAVERCGLKVDQLIFAGLASSYSVLTEDERELGVCVVDIGGGTMDIAVYTGGALRHTKVIPYAGNVVTSDIAYAFGTPPSDAEAIKVRHGCALGSIVGKDESVEVPSVGGRPPRSLQRQTLAEVIEPRYTELLNLVNEEILQLQEKLRQQGVKHHLAAGIVLTGGAAQIEGLAACAQRVFHTQVRIGAPLNITGLTDYAQEPYYSTAVGLLHYGKESHLNGEAEVEKRVTASVGSWIKRLNSWLRKEF
Question: For B2, which “fold change of barcode share” value [1] is on record?
Answer: The value was 0.344 ± 0.041.

Question: What about the “fold change of barcode share” value [2] of the same protein?
Answer: The value was 0.0105 ± 0.004.

B3: ftsA V24Q (protein)
chain: MIKATDRKLVVGLEIGTAKVAALQGEVLPDGMVNIIGVGSCPSRGMDKGGVNDLESVVKCVQRAIDQAELMADCQISSVYLALSGKHISCQNEIGMVPISEEEVTQEDVENVVHTAKSVRVRDEHRVLHVIPQEYAIDYQEGIKNPVGLSGVRMQAKVHLITCHNDMAKNIVKAVERCGLKVDQLIFAGLASSYSVLTEDERELGVCVVDIGGGTMDIAVYTGGALRHTKVIPYAGNVVTSDIAYAFGTPPSDAEAIKVRHGCALGSIVGKDESVEVPSVGGRPPRSLQRQTLAEVIEPRYTELLNLVNEEILQLQEKLRQQGVKHHLAAGIVLTGGAAQIEGLAACAQRVFHTQVRIGAPLNITGLTDYAQEPYYSTAVGLLHYGKESHLNGEAEVEKRVTASVGSWIKRLNSWLRKEF
Question: Which “fold change of barcode share” value [1] does the source give for B3 here?
Answer: The value was 0.227 ± 0.056.

Question: And the “fold change of barcode share” value [2]?
Answer: The value was under 0.00891.

B4: ftsA V58Q (protein)
chain: MIKATDRKLVVGLEIGTAKVAALVGEVLPDGMVNIIGVGSCPSRGMDKGGVNDLESVQKCVQRAIDQAELMADCQISSVYLALSGKHISCQNEIGMVPISEEEVTQEDVENVVHTAKSVRVRDEHRVLHVIPQEYAIDYQEGIKNPVGLSGVRMQAKVHLITCHNDMAKNIVKAVERCGLKVDQLIFAGLASSYSVLTEDERELGVCVVDIGGGTMDIAVYTGGALRHTKVIPYAGNVVTSDIAYAFGTPPSDAEAIKVRHGCALGSIVGKDESVEVPSVGGRPPRSLQRQTLAEVIEPRYTELLNLVNEEILQLQEKLRQQGVKHHLAAGIVLTGGAAQIEGLAACAQRVFHTQVRIGAPLNITGLTDYAQEPYYSTAVGLLHYGKESHLNGEAEVEKRVTASVGSWIKRLNSWLRKEF
Question: B4 was tested. Which “fold change of barcode share” value [1] did it give?
Answer: Its value is 0.245 ± 0.058.

Question: And the “fold change of barcode share” value [2]?
Answer: Its value is 0.0877 ± 0.0098.

B5: ftsA L54Q (protein)
chain: MIKATDRKLVVGLEIGTAKVAALVGEVLPDGMVNIIGVGSCPSRGMDKGGVNDQESVVKCVQRAIDQAELMADCQISSVYLALSGKHISCQNEIGMVPISEEEVTQEDVENVVHTAKSVRVRDEHRVLHVIPQEYAIDYQEGIKNPVGLSGVRMQAKVHLITCHNDMAKNIVKAVERCGLKVDQLIFAGLASSYSVLTEDERELGVCVVDIGGGTMDIAVYTGGALRHTKVIPYAGNVVTSDIAYAFGTPPSDAEAIKVRHGCALGSIVGKDESVEVPSVGGRPPRSLQRQTLAEVIEPRYTELLNLVNEEILQLQEKLRQQGVKHHLAAGIVLTGGAAQIEGLAACAQRVFHTQVRIGAPLNITGLTDYAQEPYYSTAVGLLHYGKESHLNGEAEVEKRVTASVGSWIKRLNSWLRKEF
Question: Which “fold change of barcode share” value [1] does the source give for B5 here?
Answer: The value was 0.393 ± 0.092.

Question: What about the “fold change of barcode share” value [2] of the same protein?
Answer: The value was under 0.00667.

B6: ftsA V58P (protein)
chain: MIKATDRKLVVGLEIGTAKVAALVGEVLPDGMVNIIGVGSCPSRGMDKGGVNDLESVPKCVQRAIDQAELMADCQISSVYLALSGKHISCQNEIGMVPISEEEVTQEDVENVVHTAKSVRVRDEHRVLHVIPQEYAIDYQEGIKNPVGLSGVRMQAKVHLITCHNDMAKNIVKAVERCGLKVDQLIFAGLASSYSVLTEDERELGVCVVDIGGGTMDIAVYTGGALRHTKVIPYAGNVVTSDIAYAFGTPPSDAEAIKVRHGCALGSIVGKDESVEVPSVGGRPPRSLQRQTLAEVIEPRYTELLNLVNEEILQLQEKLRQQGVKHHLAAGIVLTGGAAQIEGLAACAQRVFHTQVRIGAPLNITGLTDYAQEPYYSTAVGLLHYGKESHLNGEAEVEKRVTASVGSWIKRLNSWLRKEF
Question: For B6, which “fold change of barcode share” value [1] is on record?
Answer: Its value is 0.442 ± 0.13.

Question: What about the “fold change of barcode share” value [2] of the same protein?
Answer: Its value is under 0.0132.

B7: ftsA L54P (protein)
chain: MIKATDRKLVVGLEIGTAKVAALVGEVLPDGMVNIIGVGSCPSRGMDKGGVNDPESVVKCVQRAIDQAELMADCQISSVYLALSGKHISCQNEIGMVPISEEEVTQEDVENVVHTAKSVRVRDEHRVLHVIPQEYAIDYQEGIKNPVGLSGVRMQAKVHLITCHNDMAKNIVKAVERCGLKVDQLIFAGLASSYSVLTEDERELGVCVVDIGGGTMDIAVYTGGALRHTKVIPYAGNVVTSDIAYAFGTPPSDAEAIKVRHGCALGSIVGKDESVEVPSVGGRPPRSLQRQTLAEVIEPRYTELLNLVNEEILQLQEKLRQQGVKHHLAAGIVLTGGAAQIEGLAACAQRVFHTQVRIGAPLNITGLTDYAQEPYYSTAVGLLHYGKESHLNGEAEVEKRVTASVGSWIKRLNSWLRKEF
Question: What does the source list for B7?
Answer: fold change of barcode share [1]: 0.931 ± 0.14; fold change of barcode share [2]: 0.0053 ± 0.0026

B8: ftsA L54A (protein)
chain: MIKATDRKLVVGLEIGTAKVAALVGEVLPDGMVNIIGVGSCPSRGMDKGGVNDAESVVKCVQRAIDQAELMADCQISSVYLALSGKHISCQNEIGMVPISEEEVTQEDVENVVHTAKSVRVRDEHRVLHVIPQEYAIDYQEGIKNPVGLSGVRMQAKVHLITCHNDMAKNIVKAVERCGLKVDQLIFAGLASSYSVLTEDERELGVCVVDIGGGTMDIAVYTGGALRHTKVIPYAGNVVTSDIAYAFGTPPSDAEAIKVRHGCALGSIVGKDESVEVPSVGGRPPRSLQRQTLAEVIEPRYTELLNLVNEEILQLQEKLRQQGVKHHLAAGIVLTGGAAQIEGLAACAQRVFHTQVRIGAPLNITGLTDYAQEPYYSTAVGLLHYGKESHLNGEAEVEKRVTASVGSWIKRLNSWLRKEF
Question: B8 was tested. Which “fold change of barcode share” value [1] did it give?
Answer: The value was 0.349 ± 0.0097.

Question: What about the “fold change of barcode share” value [2] of the same protein?
Answer: Its value is 0.00552 ± 0.0015.

B9: ftsA L382W (protein)
chain: MIKATDRKLVVGLEIGTAKVAALVGEVLPDGMVNIIGVGSCPSRGMDKGGVNDLESVVKCVQRAIDQAELMADCQISSVYLALSGKHISCQNEIGMVPISEEEVTQEDVENVVHTAKSVRVRDEHRVLHVIPQEYAIDYQEGIKNPVGLSGVRMQAKVHLITCHNDMAKNIVKAVERCGLKVDQLIFAGLASSYSVLTEDERELGVCVVDIGGGTMDIAVYTGGALRHTKVIPYAGNVVTSDIAYAFGTPPSDAEAIKVRHGCALGSIVGKDESVEVPSVGGRPPRSLQRQTLAEVIEPRYTELLNLVNEEILQLQEKLRQQGVKHHLAAGIVLTGGAAQIEGLAACAQRVFHTQVRIGAPLNITGLTDYAQEPYYSTAVGWLHYGKESHLNGEAEVEKRVTASVGSWIKRLNSWLRKEF
Question: Which “fold change of barcode share” value [1] does the source give for B9 here?
Answer: Its value is 0.925 ± 0.6.

Question: What about the “fold change of barcode share” value [2] of the same protein?
Answer: The value was 0.0126 ± 0.0006.

B10: ftsH I247A (protein)
chain: MAKNLILWLVIAVVLMSVFQSFGPSESNGRKVDYSTFLQEVNNDQVREARINGREINVTKKDSNRYTTYIPVQDPKLLDNLLTKNVKVVGEPPEEPSLLASIFISWFPMLLLIGVWIFFMRQMQGGGGKGAMSFGKSKARMLTEDQIKTTFADVAGCDEAKEEVAELVEYLREPSRFQKLGGKIPKGVLMVGPPGTGKTLLAKAIAGEAKVPFFTISGSDFVEMFVGVGASRVRDMFEQAKKAAPCAIFIDEIDAVGRQRGAGLGGGHDEREQTLNQMLVEMDGFEGNEGIIVIAATNRPDVLDPALLRPGRFDRQVVVGLPDVRGREQILKVHMRRVPLAPDIDAAIIARGTPGFSGADLANLVNEAALFAARGNKRVVSMVEFEKAKDKIMMGAERRSMVMTEAQKESTAYHEAGHAIIGRLVPEHDPVHKVTIIPRGRALGVTFFLPEGDAISASRQKLESQISTLYGGRLAEEIIYGPEHVSTGASNDIKVATNLARNMVTQWGFSEKLGPLLYAEEEGEVFLGRSVAKAKHMSDETARIIDQEVKALIERNYNRARQLLTDNMDILHAMKDALMKYETIDAPQIDDLMARRDVRPPAGWEEPGASNNSGDNGSPKAPRPVDEPRTPNPGNTMSEQLGDK
Question: What does the source list for B10?
Answer: fold change of barcode share [1]: 0.933 ± 0.095; fold change of barcode share [2]: < 0.012

B11: ftsB W14A (protein)
chain: MGKLTLLLLAILVALQYSLWFGKNGIHDYTRVNDDVAAQQATNAKLKARNDQLFAEIDDLNGGQEALEERARNELSMTRPGETFYRLVPDASKRAQSAGQNNR
Question: How did the “fold change of barcode share” value [1] turn out when B11 was run?
Answer: Its value is 0.304 ± 0.038.

Question: And the “fold change of barcode share” value [2]?
Answer: The value was under 0.00141.

B12: ftsB W14P (protein)
chain: MGKLTLLLLAILVPLQYSLWFGKNGIHDYTRVNDDVAAQQATNAKLKARNDQLFAEIDDLNGGQEALEERARNELSMTRPGETFYRLVPDASKRAQSAGQNNR
Question: With B12 as the protein, how does the “fold change of barcode share” value [1] read?
Answer: Its value is 0.273 ± 0.035.

Question: And the “fold change of barcode share” value [2]?
Answer: Its value is 0.0375 ± 0.046.

B13: ftsB W14Q (protein)
chain: MGKLTLLLLAILVQLQYSLWFGKNGIHDYTRVNDDVAAQQATNAKLKARNDQLFAEIDDLNGGQEALEERARNELSMTRPGETFYRLVPDASKRAQSAGQNNR
Question: What does the source list for B13?
Answer: fold change of barcode share [1]: 0.276 ± 0.043; fold change of barcode share [2]: 0.00517 ± 0.005

B14: ftsB W14D (protein)
chain: MGKLTLLLLAILVDLQYSLWFGKNGIHDYTRVNDDVAAQQATNAKLKARNDQLFAEIDDLNGGQEALEERARNELSMTRPGETFYRLVPDASKRAQSAGQNNR
Question: How did the “fold change of barcode share” value [1] turn out when B14 was run?
Answer: Its value is 0.274 ± 0.034.

Question: What about the “fold change of barcode share” value [2] of the same protein?
Answer: The value was 0.00508 ± 0.0046.
